# About 540 (0.36%) of roughly 150,000 compounds showed an effect of 50% or more. Some of the results follow.
# Test system: Plasmodium falciparum
# Assay: Primary screen in NF54 nanoGlo assay, in single point, at 2uM, 72h; a lower Z score goes with more inhibition
# Format: functional, Erythrocyte
# Settings: timepoint 72 hour
Compound,% Inhibition,Z score
CC(C)C(=O)N1CC(C(=O)N2CCN(C)CC2)C(c2cccc(C(F)(F)F)c2)C1 (stereo unspecified),-15%,1.69
O=C(Cc1nnn[nH]1)Nc1ccccc1Cl,17%,-1.93
CN(CCc1ccccn1)c1ncccc1CNC(=O)[C@@H]1COC(=O)N1,-4%,0.78
CN1CCCC[C@@H]1Cc1nc(CC(N)=O)nn1C(C)(C)C,-11%,1.94
CCN(CC)C[C@@H]1OCC(NC(=O)CC(C)(C)C)[C@H]1O (stereo partly specified),25%,-2.84
COc1ccc(CNC(=O)c2ccc(-c3cccc(C)c3)[nH]c2=O)cc1,-10%,1.27
CC1(C(=O)NCc2ccccc2S(C)(=O)=O)COC1,2%,-0.3
Cc1noc(C)c1Cn1cc(-c2c[nH]nc2-c2ccccc2)nn1,-10%,0.92
O=C(CC1C=CCC1)N1CCCC1c1ccc[nH]1 (stereo unspecified),-13%,1.28
Cc1cc(C)n2ncc(CN3CCC(CNC(=O)c4oc(C)nc4C)CC3)c2n1,-12%,2.24
CC[C@H](O)C1CCN(C(=O)c2cc(NC(=O)COC)cc3nc(-c4cccnc4)n(CC)c23)CC1,-11%,2.11
Cc1ccoc1C(=O)NCCNC(=O)c1ccn[nH]1,-1%,0.13
COc1cc(C(=O)NCCc2c(C)n3c4c(cccc24)CCC3)cc(OC)c1OC,-3%,0.59
CCCCC1CCCC1NC(=O)N(C)CC (stereo unspecified),-4%,0.38
Cc1c(Cl)ccc2ccc(NCc3ncnn3C)nc12,-10%,0.98
Cc1ccc(N2C(=O)c3ccccc3[C@@H]2c2c[nH]c3ccccc23)cc1,63%,-5.25
Cc1cc(C(=O)NC[C@H]2CCCO2)c2c(-c3ccccc3F)noc2n1,-28%,3.26
Cc1cc(N2CCCC(NC(=O)N3CC[C@H]4CCCC[C@H]43)C2)n(C)n1 (stereo partly specified),6%,-0.9
COC(=O)c1c(NC(C)=O)c2cc(NC3CCOCC3)cnc2n1CCc1ccc(OC)cc1,42%,-5.53
COC(=O)c1cc(C)nc2c1c(=O)n(CC(=O)Nc1ccc3c(c1)OCO3)c(=O)n2-c1ccccc1,-9%,1.13
Cc1ccc(NCc2cc(=O)n3ccccc3n2)c(OCC(=O)N(C)C)c1,-5%,0.94
CC(C)(CC(=O)OC(C)(C)C)NCc1nnn(C(C)(C)C)n1,16%,-2.01
CCN1CCN(C[C@@H]2CN(c3ncnc4[nH]ccc34)C[C@@H]2CO)CC1,2%,-0.44

# — ChEMBL document CHEMBL4888484, “Replenishing the malaria drug discovery pipeline: Screening and hit evaluation of the MMV Hit Generation Library 1 (HGL1) against asexual blood stage Plasmodium falciparum ,using a nano luciferase reporter read-out” (2022)
